# Molecular target: HCV NS3/NS4A protease (strain 1a) (Hepatitis C virus genotype 1a, UniProt P27958)
# Test: biochemical
# Details: Table 5; HCV NS3/NS4A protease, spectrophotometric assay, 30° C., pH 6.5; read-out: Ki* Range
row,SMILES,Ki
1,CC(C)(C)OC(=O)N[C@H](C(=O)N1C[C@H]2OC(C)(C)C[C@H]2[C@H]1C(=O)NC(CC1CC1)C(=O)C(N)=O)C1CCCCC1 (stereo partly drawn),101 to 1000 nM
2,CCCC(NC(=O)[C@@H]1[C@@H]2[C@H](CN1C(=O)C(NC(=O)NC1(C)CC1)C1CCCCC1)C2(C)C)C(=O)C(N)=O (stereo partly drawn),101 to 1000 nM
3,CCCC(NC(=O)[C@@H]1[C@@H]2[C@H](CN1C(=O)[C@@H](NC(=O)NC1(C)CC1)C(C)(C)C)C2(C)C)C(=O)C(N)=O (stereo partly drawn),101 to 1000 nM
4,CC(C)OC(=O)N[C@H](C(=O)N1CC2C([C@H]1C(=O)NC(CC1CCC1)C(=O)C(N)=O)C2(C)C)C1CCCCC1 (stereo partly drawn),1 to 100 nM
5,CCCC(NC(=O)[C@@H]1[C@@H]2[C@H](CN1C(=O)[C@@H](NC(=S)NC(C)(C)C)C(C)(C)C)C2(C)C)C(=O)C(N)=O (stereo partly drawn),> 1000 nM
6,CC1(NC(=O)N[C@H](C(=O)N2C[C@H]3[C@@H]([C@H]2C(=O)NC(CC2CC2)C(=O)C(N)=O)C3(C)C)C(C)(C)C)CC1 (stereo partly drawn),1 to 100 nM
7,CC1(NC(=O)N[C@H](C(=O)N2C[C@H]3[C@@H]([C@H]2C(=O)NC(CC2CC2)C(=O)C(N)=O)C3(C)C)C2CCCCC2)CC1 (stereo partly drawn),101 to 1000 nM
8,CC1(C)[C@@H]2[C@@H](C(=O)NC(CC3CC3)C(=O)C(N)=O)N(C(=O)[C@@H](NC(=O)NC3CC3)C3CCCCC3)C[C@@H]21 (stereo partly drawn),101 to 1000 nM
9,CC(C)(C)OC(=O)NC(C(=O)N1C[C@@H]2[C@H]([C@H]1C(=O)NC(CC1CC1)C(=O)C(N)=O)C2(Cl)Cl)C1CCCCC1 (stereo partly drawn),101 to 1000 nM
10,CC(C)(C)OC(=O)N[C@H](C(=O)N1C[C@@H]2[C@H]([C@H]1C(=O)NC(CC1CCCC1)C(=O)C(N)=O)C2(C)C)C1CCCCC1 (stereo partly drawn),101 to 1000 nM
11,C=C(C)CC(NC(=O)[C@@H]1[C@H]2[C@@H](CN1C(=O)[C@@H](NC(=O)OC(C)(C)C)C1CCCCC1)C2(C)C)C(=O)C(N)=O (stereo partly drawn),101 to 1000 nM
12,CCCC(NC(=O)C1C2C(CN1C(=O)C(CC1CC1)NC(=O)OC(C)(C)C)C2(C)C)C(=O)C(N)=O (stereo not drawn),> 1000 nM
13,CC(C)(C)NC(=O)N[C@H](C(=O)N1CC2C([C@H]1C(=O)NC(CC1CCC1)C(=O)C(N)=O)C2(C)C)C1CCCCC1 (stereo partly drawn),1 to 100 nM
14,CC(C)(C)COC(=O)NC(C(=O)N1CC2C(C1C(=O)NC(CC1CCC1)C(=O)C(N)=O)C2(C)C)C1CCCCC1 (stereo not drawn),1 to 100 nM
15,CC1(OC(=O)N[C@H](C(=O)N2C[C@H]3[C@@H]([C@H]2C(=O)NC(CC2CC2)C(=O)C(N)=O)C3(C)C)C(C)(C)C)CC1 (stereo partly drawn),101 to 1000 nM
16,CC(C)(C)[C@H](NC(=O)NC1CC1)C(=O)N1C[C@H]2[C@@H]([C@H]1C(=O)NC(CC1CC1)C(=O)C(N)=O)C2(C)C (stereo partly drawn),101 to 1000 nM
17,C=CCCC(NC(=O)[C@@H]1C2OC(C)(C)OC2CN1C(=O)[C@@H](NC(=O)OC(C)(C)C)C(C)(C)C)C(=O)C(N)=O (stereo partly drawn),> 1000 nM

row,SMILES,Ki
1,CC(C)NC(=O)N[C@H](C(=O)N1CC2C([C@H]1C(=O)NC(CC1CCC1)C(=O)C(N)=O)C2(C)C)C1CCCCC1 (stereo partly drawn),1 to 100 nM
2,CC(C)(C)OC(=O)N[C@H](C(=O)N1C[C@H]2[C@@H]([C@H]1C(=O)NC(CC(F)(F)F)C(=O)C(N)=O)C2(C)C)C1CCCCC1 (stereo partly drawn),1 to 100 nM
3,CC(C)(C)OC(=O)N[C@H](C(=O)N1C[C@@H]2[C@H]([C@H]1C(=O)NC(CC1CCC1)C(=O)C(N)=O)C2(C)C)C1CCC2(CC1)CC2 (stereo partly drawn),1 to 100 nM
4,CC(C)COC(=O)N[C@H](C(=O)N1C[C@@H]2[C@H]([C@H]1C(=O)NC(CC1CC1)C(=O)C(N)=O)C2(C)C)C1Cc2ccccc2C1 (stereo partly drawn),1 to 100 nM
5,CC(C)(C)COC(=O)N[C@H](C(=O)N1C[C@@H]2[C@H]([C@H]1C(=O)NC(CC1CC1)C(=O)C(N)=O)C2(C)C)C1Cc2ccccc2C1 (stereo partly drawn),1 to 100 nM
6,CC(C)(C)OC(=O)NC(C(=O)N1C[C@H]2[C@@H]([C@H]1C(=O)NC(CC1CC1)C(=O)C(N)=O)C2(Cl)Cl)C1Cc2ccccc2C1 (stereo partly drawn),1 to 100 nM
7,CC(C)(C)OC(=O)N[C@H](C(=O)N1C[C@@H]2[C@H]([C@H]1C(=O)NC(CC1CCC1)C(=O)C(N)=O)C2(C)C)C1CC2CCCCC2C1 (stereo partly drawn),101 to 1000 nM
8,CCCC(NC(=O)[C@@H]1[C@H]2[C@@H](CN1C(=O)[C@@H](NC(=O)OC(C)(C)C)C1CC3CCCCC3C1)C2(C)C)C(=O)C(N)=O (stereo partly drawn),101 to 1000 nM
9,CC(C)[C@@H](C)OC(=O)N[C@H](C(=O)N1C[C@@H]2[C@H]([C@H]1C(=O)NC(CC1CC1)C(=O)C(N)=O)C2(C)C)C1Cc2ccccc2C1 (stereo partly drawn),1 to 100 nM
10,CC(C)(C)OC(=O)N[C@H](C(=O)N1C[C@@H]2[C@H]([C@H]1C(=O)NC(CC1CC1)C(=O)C(N)=O)C2(C)C)C1CC2CCCCC2C1 (stereo partly drawn),1 to 100 nM
11,CC1(C)C2CN(C(=O)[C@@H](NC(=O)NC34CC5CC(CC(C5)C3)C4)C3CCCCC3)[C@H](C(=O)NC(CC3CCC3)C(=O)C(N)=O)C21 (stereo partly drawn),1 to 100 nM
12,CC(C)COC(=O)N[C@H](C(=O)N1C[C@@H]2[C@H]([C@H]1C(=O)NC(CC1CCC1)C(=O)C(N)=O)C2(C)C)C1CCCCC1 (stereo partly drawn),1 to 100 nM
13,CC(C)(C)OC(=O)N[C@H](C(=O)N1C[C@@H]2[C@H]([C@H]1C(=O)NC(CC1CCC1)C(=O)C(N)=O)C2(C)C)C1CCC(F)(F)CC1 (stereo partly drawn),1 to 100 nM
14,CC1(C)C2CN(C(=O)[C@@H](NC(=O)OCC3CC3)C3CCCCC3)[C@H](C(=O)NC(CC3CCC3)C(=O)C(N)=O)C21 (stereo partly drawn),101 to 1000 nM
15,CC(C)(C)OC(=O)N[C@H](C(=O)N1C[C@@H]2[C@H]([C@H]1C(=O)NC(CC1CCCCC1)C(=O)C(N)=O)C2(C)C)C1Cc2ccccc2C1 (stereo partly drawn),> 1000 nM
16,CC(C)(C)OC(=O)N[C@H](C(=O)N1C[C@@H]2[C@H]([C@H]1C(=O)NC(CC1CCCCC1)C(=O)C(N)=O)C2(C)C)C(C)(C)C (stereo partly drawn),> 1000 nM
